Measurements as given in PubChem BioAssay AID686978 (National Center for Advancing Translational Sciences (NCATS), 2013).
Among all 420,000 compounds or so, about 64,000 (15%) were called active. The shares of active, inactive and inconclusive entries below differ from those in the screen. The call rests on the fitted dose curve; in most records, active means well fitted inhibition curve with a large enough effect; inconclusive means small, poorly fitted or top-dose-only effect; inactive means flat fitted curve, though single readings scatter. No potency is given beside an inconclusive call; the fits are too rough.

Test: qHTS for Inhibitors of human tyrosyl-DNA phosphodiesterase 1 (TDP1): qHTS in cells in absence of CPT; further: nearly all actives have a fitted effect of over 55% in size
Conditions: DT40 Tdp1-/- hTDP1 cells, no CPT, ATP luminescence, 48 h; activity change, negative = growth inhibition: at 46.2 µM (top of the series)
Procedure, shortened: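 A cellular qHTS used chicken DT40 cells lacking endogenous Tdp1 but carrying stably transfected human TDP1. Compounds were applied without camptothecin, and cell growth kinetics were judged by ATP-dependent luminescence after ≥48 hr.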
On the % scale 0 is the no-effect control and ±100 the full control effect; potency means the concentration at half of the fitted maximal effect; tags describe the fitted curve by direction and shape.

**Q.** Which Potency does the source give for `Nc1ccc2nc(SCc3ccc([N+](=O)[O-])cc3)sc2c1` here?
**A.** The Potency was inconclusive [inhibitor, single point].

**Q.** With `Cc1cccc(CCNc2ncnc3onc(-c4ccc(Cl)cc4)c23)c1` as the compound, how does the Potency read?
**A.** Its Potency is active: 18.4 µM.

**Q.** Which Potency does the source give for `CCCc1nnc(NC(=O)CSc2nnc(-c3ccco3)n2C)s1` here?
**A.** Its Potency is “inactive”.

**Q.** For `Cc1cccc2sc(NNC(=O)c3cc(=O)c4ccccc4o3)nc12`, which Potency is on record?
**A.** The Potency was inconclusive [inhibitor, single point].

**Q.** With `O=C(COc1ccccc1F)Nc1ccccc1C(=O)NC1CC1` as the compound, how does the Potency read?
**A.** The Potency was “inactive”.

**Q.** Which Potency does the source give for `COc1cc(C(C)=O)ccc1Oc1ncnc2c1cnn2-c1ccc(C)c(C)c1` here?
**A.** Its Potency is active: 14.6 µM.

**Q.** With `CNC(=O)NC(=O)CSc1nnc(C(F)(F)F)n1C` as the compound, how does the Potency read?
**A.** Its Potency is “inactive”.

**Q.** With `COc1cccc(N2CCN(c3ccc4nnc(CCC(=O)Nc5ccc(F)cc5)n4n3)CC2)c1` as the compound, how does the Potency read?
**A.** The Potency was inconclusive [inhibitor, partial curve].

**Q.** Which Potency does the source give for `O=c1oc(CCO)cc2ccc(-c3ccc4[nH]ccc4c3)cc12` here?
**A.** Its Potency is “inactive”.

**Q.** With `Cc1cccc(Cn2nc(C)n3c(cc4cc(C)ccc43)c2=O)c1` as the compound, how does the Potency read?
**A.** Its Potency is “inactive”.

**Q.** For `COc1ccc(C(=O)Nc2ccccc2NC(=O)c2ccco2)c(OC)c1`, which Potency is on record?
**A.** The Potency was inconclusive [inhibitor, single point].

**Q.** For `Cc1ccc(N(Cc2ccccc2)C(=O)c2cc(S(=O)(=O)N3CCOCC3)ccc2N2CCCC2)cc1`, which Potency is on record?
**A.** Its Potency is active: 20.6 µM.

**Q.** With `CN(Cc1ccccc1)C(=O)CCCn1c(=O)[nH]c2cc(Cl)ccc2c1=O` as the compound, how does the Potency read?
**A.** Its Potency is inconclusive [inhibitor, single point].

**Q.** For `Cc1noc(C)c1C(=O)N1CCC2(CCCN(c3ccccc3)C2)CC1`, which Potency is on record?
**A.** The Potency was inconclusive [inhibitor, single point].

**Q.** With `COC(=O)c1cc(OC)c(OC)cc1NC(=S)N1CCN(C/C=C/c2ccccc2)CC1` as the compound, how does the Potency read?
**A.** Its Potency is inconclusive [inhibitor, partial curve].

**Q.** With `CC(C)(C)Cc1c(-c2cccc(Cl)c2)nc2ccc(Cl)cn12` as the compound, how does the Potency read?
**A.** Its Potency is inconclusive [inhibitor, single point].

**Q.** Which Potency does the source give for `O=C(c1cnccn1)N1CCC2(CCN(Cc3ccncc3)CC2)CC1` here?
**A.** Its Potency is inconclusive [inhibitor, single point].

**Q.** With `Cc1ccccc1OCC(=O)Nc1sc2c(c1C(=O)OC(C)C)CCCC2` as the compound, how does the Potency read?
**A.** The Potency was “inactive”.

**Q.** For `CCN1C(=O)c2cccc3cccc1c23`, which Potency is on record?
**A.** Its Potency is inconclusive [inhibitor, single point].

**Q.** For `C=CCNC(=O)COC(=O)c1cccnc1Nc1ccccc1F`, which Potency is on record?
**A.** The Potency was “inactive”.

**Q.** Which Potency does the source give for `CCCNC(=O)COC(=O)c1ccc(N2CCCC2)c([N+](=O)[O-])c1` here?
**A.** Its Potency is inconclusive [inhibitor, single point].

**Q.** Which Potency does the source give for `CCOc1ccc(S(=O)(=O)Nc2cccc(C(=O)N3CCN(c4cccc(OC)c4)CC3)c2)cc1` here?
**A.** The Potency was active: 18.4 µM.

**Q.** For `N#Cc1ccccc1-c1nc(NCCN2CCOCC2)c2ccccc2n1`, which activity change, negative = growth inhibition is on record?
**A.** The activity change, negative = growth inhibition was inconclusive: -32.2% [inhibitor].

**Q.** For `Fc1ccccc1N1CCN(C2CCN(Cc3c[nH]c4ccccc34)CC2)CC1`, which Potency is on record?
**A.** Its Potency is inconclusive [inhibitor, single point].

**Q.** For `Cn1c(N2CCC(C(N)=O)CC2)nc2c1c(=O)n(Cc1cccc(Br)c1)c(=O)n2C`, which Potency is on record?
**A.** The Potency was inconclusive [inhibitor, single point].

**Q.** For `CCc1nnc(NC(=O)CSCc2cc(=O)n3cc(C)sc3n2)s1`, which Potency is on record?
**A.** The Potency was “inactive”.

**Q.** Which Potency does the source give for `CC1(C(=O)NS(=O)(=O)c2ccc(Cl)cc2)CCN1C(=O)Cc1cccs1` (centres undefined) here?
**A.** Its Potency is “inactive”.

**Q.** With `CC1CCC(C(C)C)C(OC(=O)Cn2nnc3c(cnn3-c3ccccc3)c2=O)C1` (centres undefined) as the compound, how does the Potency read?
**A.** The Potency was inconclusive [inhibitor, single point].

**Q.** For `COc1ccc(N(C(=O)c2snc(C(N)=O)c2N)C(C(=O)NCc2ccccc2)c2ccc(O)cc2)cc1OC` (centres undefined), which Potency is on record?
**A.** Its Potency is inconclusive [inhibitor, single point].

**Q.** For `CSc1cccc(NC(=O)COC(=O)c2ccccn2)c1`, which Potency is on record?
**A.** The Potency was inconclusive [inhibitor, single point].

**Q.** For `Cc1ccc2c(c1)c(=O)c1ccccc1n2CCCC(=O)Nc1cc(Cl)ccc1C`, which Potency is on record?
**A.** Its Potency is active: 16.4 µM.

**Q.** With `COc1ccccc1NC(=O)Cn1c(=O)n(CCc2c[nH]c3ccccc23)c(=O)c2cccnc21` as the compound, how does the Potency read?
**A.** The Potency was “inactive”.

**Q.** With `O=S(=O)(Nc1cccc2ncccc12)c1cccc(C(F)(F)F)c1` as the compound, how does the Potency read?
**A.** The Potency was active: 9.2 µM.

**Q.** With `CC(OC(=O)c1cc(=O)[nH]c2ccccc12)C(=O)N1C(C)CCCC1C` (centres undefined) as the compound, how does the Potency read?
**A.** The Potency was “inactive”.

**Q.** With `Cc1oc2ccc(O)c(CN3CCN(C)CC3)c2c1C(=O)Nc1cccc(Cl)c1C` as the compound, how does the Potency read?
**A.** Its Potency is active: 18.4 µM.

**Q.** For `CCC1=NN(C(=O)COc2ccccc2)C(O)(c2ccc(Br)cc2)C1` (centres undefined), which Potency is on record?
**A.** The Potency was active: 20.6 µM.

**Q.** Which Potency does the source give for `O=S1(=O)N=C(N/N=C/c2ccccn2)c2ccccc21` here?
**A.** Its Potency is inconclusive [inhibitor, single point].

**Q.** For `Cc1cccc(-n2c(=O)c3c(c4cc(C)ccc4n3C)n(CC(=O)NCC3CCCO3)c2=O)c1` (centres undefined), which Potency is on record?
**A.** Its Potency is “inactive”.

**Q.** With `Cc1cccc(N2C(=O)C(CC(=O)Nc3ccc(Cl)cc3)N(Cc3ccco3)C2=O)c1` (centres undefined) as the compound, how does the Potency read?
**A.** The Potency was inconclusive [inhibitor, single point].

**Q.** With `Cc1ccc(S(=O)(=O)Nc2ccc(N3CCOCC3)cc2)cc1C` as the compound, how does the Potency read?
**A.** Its Potency is inconclusive [inhibitor, full curve, poor fit].

**Q.** With `Cc1oc(-c2cccc(Cl)c2)nc1CS(=O)(=O)CC(=O)NCc1ccccc1Cl` as the compound, how does the Potency read?
**A.** The Potency was inconclusive [inhibitor, partial curve].

**Q.** For `O=[N+]([O-])c1ccc(O)c(C2CCCCC2)c1`, which Potency is on record?
**A.** The Potency was inconclusive [inhibitor, single point].

**Q.** For `O=C(Nc1cc(Cl)cc(Cl)c1)c1ccc2c(c1)N(Cc1cccc(Cl)c1)C(=O)c1ccccc1S2=O` (centres undefined), which Potency is on record?
**A.** Its Potency is inconclusive [inhibitor, single point].

**Q.** For `COc1cc2c(C#N)c(N3CCc4ccccc4C3)nc(N)c2c(N)n1`, which Potency is on record?
**A.** The Potency was active: 20.6 µM.

**Q.** Which Potency does the source give for `CCN1CCN(c2nc3ccccc3nc2C(C#N)C(=O)OCc2ccccc2)CC1` (centres undefined) here?
**A.** Its Potency is inconclusive [inhibitor, single point].

**Q.** For `COc1ccc2c(CNCc3cccs3)c(C(=O)O)n(Cc3ccc(C)cc3)c2c1`, which Potency is on record?
**A.** The Potency was “inactive”.

**Q.** With `N#Cc1nc(COc2ccccc2Cl)oc1N1CCCCCC1` as the compound, how does the Potency read?
**A.** The Potency was inconclusive [inhibitor, single point].

**Q.** For `CSC1=N/C(=C/c2cccnc2)C(=O)N1Cc1ccccc1`, which Potency is on record?
**A.** The Potency was inconclusive [inhibitor, partial curve].

**Q.** Which Potency does the source give for `Cn1c(CSc2nc3ccccc3s2)n[nH]c1=S` here?
**A.** Its Potency is “inactive”.

**Q.** With `COC(=O)C1=C(C(=O)OC)[C@@H]2N(C)c3ccccc3[C@@]23C[C@@H](CO)N(C(=O)c2cccs2)C3=N1` as the compound, how does the Potency read?
**A.** The Potency was “inactive”.

**Q.** With `COc1ccc2sc(-c3ccccc3OC)c(C#Cc3cncn3C)c2c1` as the compound, how does the Potency read?
**A.** Its Potency is inconclusive [inhibitor, single point].

**Q.** Which Potency does the source give for `NC(=O)c1ccc(NC(=O)c2ccc(COc3ccccc3Br)cc2)cc1` here?
**A.** The Potency was “inactive”.

**Q.** With `O=C(Oc1ccc[nH]c1=O)c1cc([N+](=O)[O-])cc([N+](=O)[O-])c1` as the compound, how does the Potency read?
**A.** Its Potency is inconclusive [inhibitor, partial curve].

**Q.** Which Potency does the source give for `C=CCC1(C)C(=O)N(c2ccccc2)c2ccccc21` (centres undefined) here?
**A.** The Potency was “inactive”.

**Q.** Which Potency does the source give for `COc1ccc(Cl)cc1NC(=O)C(C)Sc1n[nH]c(N)n1` (centres undefined) here?
**A.** Its Potency is inconclusive [inhibitor, full curve, poor fit].

**Q.** With `Cc1cccc(C)c1NC(=O)CN(C)C(=O)CC1CC2CCC1C2` (centres undefined) as the compound, how does the Potency read?
**A.** The Potency was inconclusive [inhibitor, single point].

**Q.** Which Potency does the source give for `COc1ccc(S(=O)(=O)N(C)C[C@H]2Oc3ccc(NC(=O)Nc4ccc5c(c4)OCO5)cc3C(=O)N([C@H](C)CO)C[C@@H]2C)cc1` here?
**A.** Its Potency is inconclusive [inhibitor, single point].

**Q.** With `C=CCNCC(=O)N1N=C(c2ccc3ccccc3c2)CC1c1ccc(OC)cc1` (centres undefined) as the compound, how does the Potency read?
**A.** The Potency was active: 13 µM.

**Q.** With `COc1ccc(CN2CCC2(C)C(=O)NCc2ccc3c(c2)OCO3)c2ccccc12` (centres undefined) as the compound, how does the Potency read?
**A.** Its Potency is inconclusive [inhibitor, single point].

**Q.** For `COc1ccc(CC(=O)Nc2ccc(-c3nc4cc(C)ccc4o3)c(O)c2)cc1OC`, which Potency is on record?
**A.** Its Potency is inconclusive [inhibitor, single point].

**Q.** Which Potency does the source give for `CN(C)c1ccc(C(CNC(=O)COc2ccc(Cl)cc2)N2CCCC2)cc1` (centres undefined) here?
**A.** The Potency was inconclusive [inhibitor, single point].

**Q.** With `Cn1c(SCC(=O)NCCc2ccccc2)ncc(C(=O)Nc2ccc(F)cc2)c1=O` as the compound, how does the Potency read?
**A.** Its Potency is inconclusive [inhibitor, single point].

**Q.** Which Potency does the source give for `CCCn1c(SCC(=O)Nc2ccc(NC(C)=O)cc2)nc2c1c(=O)n(C)c(=O)n2C` here?
**A.** The Potency was inconclusive [inhibitor, partial curve].

**Q.** With `COc1ccc(OC)c(N(CC(=O)NCCSCc2ccc(C)cc2)S(C)(=O)=O)c1` as the compound, how does the Potency read?
**A.** Its Potency is inconclusive [inhibitor, full curve, poor fit].

**Q.** For `O=C(NCc1ccco1)c1cc(-c2cccs2)nc2ccccc12`, which Potency is on record?
**A.** Its Potency is inconclusive [inhibitor, partial curve].

**Q.** Which Potency does the source give for `CCCCOc1ccc(C2=NC(c3cccs3)=Nc3ccc(CC)cc3N2)cc1` here?
**A.** Its Potency is inconclusive [inhibitor, single point].

**Q.** With `COC(=O)c1c(Oc2ccc(OC)cc2)nnc(-c2ccccc2)c1-c1ccccc1` as the compound, how does the Potency read?
**A.** Its Potency is inconclusive [inhibitor, single point].

**Q.** With `CCc1ccc2[nH]c(=O)c(CN(CCN(C)C)C(=S)NCc3ccco3)cc2c1` as the compound, how does the Potency read?
**A.** The Potency was inconclusive [inhibitor, partial curve].

**Q.** Which Potency does the source give for `Cc1ccc(S(=O)(=O)c2nc(N3CCOCC3)sc2Cl)cc1` here?
**A.** The Potency was inconclusive [inhibitor, single point].
